The whole screen tested about 410,000 compounds, of which about 7,200 (1.8%) were called active. The shares of active, inactive and inconclusive entries below differ from those in the screen. Calls follow the shape of the dose curve; as a rule, active = well fitted activation curve with a large enough effect; inconclusive = small, poorly fitted or top-dose-only effect, or another doubt; inactive = no such curve, though single readings can be large or run the other way. Potencies of inconclusive entries are left out as doubtful fits. Some compounds were tested as several samples or in several runs, with calls that do not always agree.
experiment: qHTS of TDP-43 Inhibitors; conditions: TDP-43 expressing yeast growth rescue, BacTiter-Glo, 24 h; growth rescue (activation): at 46.1 µM (top of the series) unless noted; also: nearly all actives have a fitted effect of over 50% in size; as to growth rescue (activation): % of control where 0% means no effect
Procedure, shortened: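 Cell-based yeast growth screen: TDP-43 expression induced in galactose, inoculum OD600=0.02 after raffinose pregrowth to mid-log. Read-out BacTiter-Glo luminescence at 24 hr, 30 deg C; inhibition of toxicity seen as signal increase.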
Potency is read from the fitted curve at half-maximal effect; tags tell the direction and shape of the fitted curve.

SMILES | Potency | growth rescue (activation)
COc1ccc(-c2cc3nc(-c4ccccc4)cc(N4CCN(C(=O)c5ccccc5)CC4)n3n2)cc1 | inconclusive [activator, full curve] | 
O=C(OCc1c(-c2ccccc2)ncc2ccccc12)c1cccs1 | inconclusive [activator, single point] | 
COCCCN1CCc2nc(SCC(=O)Nc3ccc(C)c(Cl)c3)[nH]c(=O)c2C1 |  | inactive: 6.78%
Nc1cc2c(cc1Br)-c1ccccc1C2=NO | inconclusive [activator, full curve] | 
CCOC(=O)C1CCN(CC(C)(C)NS(=O)(=O)c2ccc(C)cc2)CC1 |  | inactive: -14.2%
Cc1ccc(-c2c(CN3CCN(c4cc(Cl)ccc4C)CC3)csc2C)cc1 | inconclusive [activator, full curve, poor fit] | 
O=C(NCc1cccnc1)c1ccc(NC(=O)c2ccc([N+](=O)[O-])cc2)cc1 |  | inactive: 8.69%
O=C(Nc1ccccc1Cc1ccccc1)c1ccccc1F | inconclusive [activator, single point] | 
Cc1ccc(Sc2c(O)c3ccccc3n(C)c2=O)cc1 | active: 3.16 µM | 
CCCCCCSc1nc2c(c(=O)[nH]c(=O)n2C)n1C | inconclusive [activator, partial curve] | 
COc1cc(/C(C#N)=C/c2cccc3ccccc23)c([N+](=O)[O-])cc1OC |  | inactive: -2.15%
CCCN1C(=O)CC(c2ccc(OC)c(OC)c2)C1=O (stereo not given) | inconclusive [activator, partial curve, poor fit] | 
O=C(Nc1nc(-c2cc3ccccc3oc2=O)cs1)c1ccc(Br)o1 | inconclusive [activator, full curve] | 
CCOC(=O)c1ccc(NC(=O)C2C3CCCCC32)cc1 (stereo not given) | inconclusive [activator, full curve] | 
COc1ccc(Br)cc1Cn1nnc(C(=O)Nc2ccc3c(c2)OCCO3)c1N |  | inactive: 0.283%
Cc1ccc(S(=O)(=O)NCc2ccco2)c(C)c1C | inconclusive [activator, single point] | 
Cc1cc(C)c(C2=CC(=O)C[C@H](c3ccc4c(c3)OCO4)C2)c(C)c1 | inconclusive [activator, partial curve] | 
Cc1ccc2nc(-c3cccc(Br)c3)c(Cc3ccccc3)n2c1 | inconclusive [activator, single point] | 
Cc1oc(C)c2c(=O)ccc3c(c12)OC(N)=C(C#N)C3c1ccccc1 (stereo not given) |  | inactive: -19.3%
Cc1ccc(N(C)/N=C/c2ccc(Cl)cc2Cl)nn1 | inconclusive [activator, full curve] | 
Cc1ccc2c(=O)cc(C(=O)Nc3sc4c(c3C(=O)NCc3ccco3)CCCC4)oc2c1C |  | inactive: 11.1%
O=C(O)c1ccc(N/N=C/c2ccc(-c3cc(Cl)ccc3Cl)o2)cc1 |  | inactive: 29.2%
O=C(N/N=C/c1coc2ccccc2c1=O)c1ccccc1 | inconclusive [activator, single point] | 
S=c1[nH]nc(-c2ccco2)n1/N=C/c1ccc(Cl)cc1 | inconclusive [activator, partial curve] | 

SMILES | Potency | growth rescue (activation)
CN(C)c1ccc(-c2ccnc3c2CC(C)(C(=O)NCc2ccccc2)O3)cc1 (stereo not given) | inconclusive [activator, single point] | 
O=C(COc1cccc(Cl)c1)NNC(=S)Nc1ccccc1 | inconclusive [activator, single point] | 
CC1CN(c2oc(COc3ccc(Cl)cc3Cl)nc2C#N)CC(C)O1 (stereo not given) | inconclusive [activator, single point] | 
Cc1nc(C#N)c(N/N=C/c2cccc(Cl)c2)o1 | inconclusive [activator, single point] | 
COc1ccc(-c2csc(C(O)c3ccc(F)c(F)c3)n2)cc1 (stereo not given) | inconclusive [activator, single point] | 
O=C(O)C1C2C=CC(O2)C1C(=O)Nc1ccccc1C(F)(F)F (stereo not given) | inconclusive [activator, single point] | 
CCNC(=S)N/N=C/c1cn(Cc2ccc(F)cc2)c2ccccc12 | inconclusive [activator, partial curve] | 
Cc1cccc(OCCOC(=O)c2ccc(F)c(S(=O)(=O)N3CCOCC3)c2)c1 | inconclusive [activator, single point] | 
Cc1cc(C)c2c(=O)cc(C(=O)NCCc3ccc(S(N)(=O)=O)cc3)oc2c1 |  | inactive: 22.9%
Cc1n[nH]c2c([N+](=O)[O-])c(=O)[nH]c(=O)n12 |  | inconclusive: 30.3% [activator]
O=C(Nc1ccc2ccccc2c1)N1CCN(c2ncccc2C(F)(F)F)CC1 | inconclusive [activator, single point] | 
COc1ccc(CNC(=O)CCSCc2ccc(C)cc2)cc1 | inconclusive [activator, partial curve] | 
CCc1ccc(C(C)NC(=S)NC2CCCCC2)cc1 (stereo not given) | inconclusive [activator, single point] | 
COCCNC(=O)C1(C)CCCN(Cc2cn(C)c3ccccc23)C1 (stereo not given) | inconclusive [activator, full curve, poor fit] | 
O=C(CCCc1ccccc1)Nc1nccs1 | active: 11.2 µM | 
Clc1cccc(-c2cc3nc4c(c(NCc5ccco5)n3n2)CCCC4)c1 | inconclusive [activator, single point] | 
C=CCn1c(COc2ccccc2OC)nc2ccccc21 | inconclusive [activator, full curve, poor fit] | 
Cc1ccc(CCNC(=O)NCc2noc3ccc(C)cc23)cc1 | inconclusive [activator, partial curve] | 
CCOC(=O)c1nc(-c2ccccc2)sc1C(C)=O | inconclusive [activator, partial curve] | 
COC(=O)[C@]12CCCCC=C1N(CCC1=CCCCC1)C(=O)[C@H](CC(=O)NCc1cccs1)C2 | inconclusive [activator, single point] | 
O=C(COC(=O)c1ccc(Cl)s1)c1cc2ccccc2o1 | inconclusive [activator, single point] | 
O=S(=O)(Nc1ccc(Cl)cn1)c1cccs1 | inconclusive [activator, partial curve] | 
CCOc1ccccc1NC(=O)Nc1c(C)n(-c2ccccc2)c(=O)n1C |  | inactive: -21.3%
Cc1noc2ncnc(Nc3ccc(F)cc3)c12 | inconclusive [activator, partial curve] | 

SMILES | Potency | growth rescue (activation)
Cc1cccc(NC(=O)C(c2ccccc2)N2Cc3ccccc3C2=O)c1C (stereo not given) |  | inactive: 26.7%
S=C(NCc1ccccc1)NNc1ccccc1 | inconclusive [activator, partial curve] | 
Cc1ccc(NC(=O)COc2ccc3oc4c(c3c2)CCCC4)c(C)c1 |  | inactive: 9.91%
CCCn1c(=O)c2c(nc(Br)n2CCC)n(C)c1=O | inconclusive [activator, partial curve, poor fit] | 
Cc1cccc(C(=O)NC(=S)NNC(=O)c2ccc(Cl)cc2)c1 | inconclusive [activator, full curve] | 
O=C(Nc1ccccc1Cl)c1cc(C2CCCCN2C(=O)OCCF)on1 (stereo not given) | inconclusive [activator, partial curve] | 
Cc1noc(NS(=O)(=O)c2ccc(N/C=C\C(=O)c3cccc4ccccc34)cc2)c1C |  | inconclusive: -54.7% [activator]
Cc1ccc2oc(=O)c3cnn(CC(=O)N(C)c4ccc(F)cc4)c3c2c1 |  | inactive: 7.08%
CC(=O)c1ccc(NC(=O)C2CCN(S(=O)(=O)c3ccc4c(c3)CCCN4C(=O)C3CCC3)CC2)cc1 |  | inactive: 14.2%
Cc1cc(OC(C)C(=O)NCc2ccccn2)c2c(C)c(C)c(=O)oc2c1 (stereo not given) |  | inactive: 18.5%
C#CCN1CCc2onc(-c3ccc(Br)cc3)c2C1=O | active: 35.5 µM | 
CCc1ccc(CN(C)C(=O)c2cc(COc3ccc(OC)cc3Cl)on2)nc1 | inconclusive [activator, partial curve] | 
COc1ccc(-c2c(Sc3ccccc3)c3cc(-c4ccc5c(c4)OCO5)ccc3n2C)cc1 | inconclusive [activator, full curve, poor fit] | 
COc1ccc(N2CCN(S(=O)(=O)c3c(C)nc4scc(C)n4c3=O)CC2)cc1 | active: 14.1 µM | 
O=C1c2ccccc2CCC12N=NCC2c1ccc(Br)cc1 (stereo not given) | active: 12.6 µM | 
Cc1ccc(NC(=O)CN(C)C(=O)CSc2nc3ccccc3o2)cc1 | inconclusive [activator, partial curve] | 
CC1(C)OC(=O)C(=Cc2ccc[nH]2)C(=O)O1 | inconclusive [activator, single point] | 
CCc1cc(C(=O)Nc2cnn(Cc3ccc(F)cc3)c2)no1 | inconclusive [activator, partial curve] | 
O=C(Cn1c(-c2cccs2)cc2cc(Cl)ccc21)NCc1ccccc1 |  | inactive: 2.85%
CSc1ncccc1C(=O)Nc1nc(C(C)(C)C)cs1 | inconclusive [activator, single point] | 
CC1=C(C(=O)Nc2cc(C(=O)N3CCN(c4cccc(C)c4C)CC3)ccc2C)SCCO1 | inconclusive [activator, single point] | 
COc1ccc(Cc2c(-c3ccc(F)cc3)nc3c4ccccc4ccn23)c(C)c1 | inconclusive [activator, single point] | 

Source: PubChem BioAssay AID652104 (National Center for Advancing Translational Sciences (NCATS), 2013)
